The values below come from PMC9911399, “Two distinct binding modes provide the RNA-binding protein RbFox with extraordinary sequence specificity”.

B1: CUAGAGA (DNA:RNA)
RNA: GGGAGACCGGAAUUCAGAUUGUCCCUAGAGAUUAAAUCCCGUCGUAGCCACCA
DNA 1: CAATCTGAATTCCGGTCTCCC
DNA 2: TGGTGGCTACGACGGGATT
B2: ACGAUUC (DNA:RNA)
RNA: GGGAGACCGGAAUUCAGAUUGUCCACGAUUCUUAAAUCCCGUCGUAGCCACCA
DNA 1: CAATCTGAATTCCGGTCTCCC
DNA 2: TGGTGGCTACGACGGGATT
B3: UGCUGUA (DNA:RNA)
RNA: B2 RNA with A25U, C26G, G27C, A28U, U29G, C31A
DNA 1: CAATCTGAATTCCGGTCTCCC
DNA 2: TGGTGGCTACGACGGGATT
B4: UUCACAC (DNA:RNA)
RNA: B2 RNA with A25U, C26U, G27C, U29C, U30A
DNA 1: CAATCTGAATTCCGGTCTCCC
DNA 2: TGGTGGCTACGACGGGATT
B5: GACCACA (DNA:RNA)
RNA: B1 RNA with C25G, U26A, A27C, G28C, G30C
DNA 1: CAATCTGAATTCCGGTCTCCC
DNA 2: TGGTGGCTACGACGGGATT
B6: GGCGGAA (DNA:RNA)
RNA: B1 RNA with C25G, U26G, A27C, A29G, G30A
DNA 1: CAATCTGAATTCCGGTCTCCC
DNA 2: TGGTGGCTACGACGGGATT
B7: UCGCCAA (DNA:RNA)
RNA: B2 RNA with A25U, A28C, U29C, U30A, C31A
DNA 1: CAATCTGAATTCCGGTCTCCC
DNA 2: TGGTGGCTACGACGGGATT
B8: UAAGUCC (DNA:RNA)
RNA: B2 RNA with A25U, C26A, G27A, A28G, U30C
DNA 1: CAATCTGAATTCCGGTCTCCC
DNA 2: TGGTGGCTACGACGGGATT
B9: GCGGUAU (DNA:RNA)
RNA: B2 RNA with A25G, A28G, U30A, C31U
DNA 1: CAATCTGAATTCCGGTCTCCC
DNA 2: TGGTGGCTACGACGGGATT
B10: GCCAAAU (DNA:RNA)
RNA: B2 RNA with A25G, G27C, U29A, U30A, C31U
DNA 1: CAATCTGAATTCCGGTCTCCC
DNA 2: TGGTGGCTACGACGGGATT
B11: CUCUUCA (DNA:RNA)
RNA: B1 RNA with A27C, G28U, A29U, G30C
DNA 1: CAATCTGAATTCCGGTCTCCC
DNA 2: TGGTGGCTACGACGGGATT
B12: GUAAAAU (DNA:RNA)
RNA: B1 RNA with C25G, G28A, G30A, A31U
DNA 1: CAATCTGAATTCCGGTCTCCC
DNA 2: TGGTGGCTACGACGGGATT
B13: UGCCGGG (DNA:RNA)
RNA: B1 RNA with C25U, U26G, A27C, G28C, A29G, A31G
DNA 1: CAATCTGAATTCCGGTCTCCC
DNA 2: TGGTGGCTACGACGGGATT
B14: AUGAGCA (DNA:RNA)
RNA: B2 RNA with C26U, U29G, U30C, C31A
DNA 1: CAATCTGAATTCCGGTCTCCC
DNA 2: TGGTGGCTACGACGGGATT
B15: AGCACUC (DNA:RNA)
RNA: B2 RNA with C26G, G27C, U29C
DNA 1: CAATCTGAATTCCGGTCTCCC
DNA 2: TGGTGGCTACGACGGGATT
B16: AUAAGUU (DNA:RNA)
RNA: B2 RNA with C26U, G27A, U29G, C31U
DNA 1: CAATCTGAATTCCGGTCTCCC
DNA 2: TGGTGGCTACGACGGGATT
B17: UGACUGU (DNA:RNA)
RNA: B1 RNA with C25U, U26G, G28C, A29U, A31U
DNA 1: CAATCTGAATTCCGGTCTCCC
DNA 2: TGGTGGCTACGACGGGATT
B18: CACCAAC (DNA:RNA)
RNA: B1 RNA with U26A, A27C, G28C, G30A, A31C
DNA 1: CAATCTGAATTCCGGTCTCCC
DNA 2: TGGTGGCTACGACGGGATT
B19: UCCCUUG (DNA:RNA)
RNA: B2 RNA with A25U, G27C, A28C, C31G
DNA 1: CAATCTGAATTCCGGTCTCCC
DNA 2: TGGTGGCTACGACGGGATT
B20: UUUGAGC (DNA:RNA)
RNA: B1 RNA with C25U, A27U, A31C
DNA 1: CAATCTGAATTCCGGTCTCCC
DNA 2: TGGTGGCTACGACGGGATT

Substitutions are numbered along the chain they refer to; changes in the protein carry UniProt numbers. This is one part of the list.

The assay has as its target T1, RBFOX1 RRM (Homo sapiens, UniProt Q9NWB1 109-208).
T1 sequence: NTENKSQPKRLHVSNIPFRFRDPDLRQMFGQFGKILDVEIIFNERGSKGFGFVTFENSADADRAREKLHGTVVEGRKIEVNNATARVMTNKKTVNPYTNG
The assay is described as follows: EMSA; HiTS-Eq, 1 nM pool, 10 min; buffer printed only for the single-RNA assays: 10 mM Tris pH 7.5, 150 mM NaCl, 3.4 mM EDTA, 0.001% NP-40, 30 C. Particulars: tags: His6 N-terminal (pET28a); label: 5' 32P. The procedure, abridged:
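Purified RbFox RRM, wild type or mutant, was incubated for 10 min in 50 µL with 1 nM of a 5′-radiolabelled RNA pool carrying 7 randomized nucleotides, whose flanks were annealed to DNA oligonucleotides, over a series of increasing protein concentrations. Unbound RNA was resolved on 8% native PAGE, cut out, reverse-transcribed, barcoded by PCR and sequenced on an Illumina HiSeq 2500. Relative association constants were derived from changes in read counts for each RNA species versus the control reaction and normalised to the cognate motif.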
For the molecule B1, the binding signal was 0.0094 KA relative to UGCAUGU.

Turning to B2, the binding signal is 0.00506 KA relative to UGCAUGU.

For B3, the binding signal was 0.0167 KA relative to UGCAUGU.

In the case of B4, the binding signal was 0.00289 KA relative to UGCAUGU.

Consider B5, for which the binding signal was 0.00241 KA relative to UGCAUGU.

Take B6: the binding signal was 0.0221 KA relative to UGCAUGU.

Regarding B7, the binding signal is 0.00522 KA relative to UGCAUGU.

With B8, the binding signal is 0.0101 KA relative to UGCAUGU.

On to B9, for which the binding signal is 0.0136 KA relative to UGCAUGU.

In the case of B10, the binding signal is 0.00333 KA relative to UGCAUGU.

Regarding B11, the binding signal was 0.00342 KA relative to UGCAUGU.

B12: the binding signal was 0.00108 KA relative to UGCAUGU.

As to B13, the binding signal is 0.0203 KA relative to UGCAUGU.

For B14, the binding signal was 0.0116 KA relative to UGCAUGU.

B15: the binding signal is 0.00586 KA relative to UGCAUGU.

Regarding B16, the binding signal is 0.00282 KA relative to UGCAUGU.

As to B17, the binding signal was 0.032 KA relative to UGCAUGU.

In the case of B18, the binding signal was 0.000216 KA relative to UGCAUGU.

For B19, the binding signal is 0.0183 KA relative to UGCAUGU.

Consider B20, for which the binding signal was 0.0185 KA relative to UGCAUGU.
